From the BET-seq Pho4 binding data (Le et al. 2018) come the findings set out here.

The list shows a part of the results. Values were computed here from the reads of four pooled replicates and scatter widely.

This assay addresses T1, Pho4 (S. cerevisiae) (UniProt P07270).
T1 sequence: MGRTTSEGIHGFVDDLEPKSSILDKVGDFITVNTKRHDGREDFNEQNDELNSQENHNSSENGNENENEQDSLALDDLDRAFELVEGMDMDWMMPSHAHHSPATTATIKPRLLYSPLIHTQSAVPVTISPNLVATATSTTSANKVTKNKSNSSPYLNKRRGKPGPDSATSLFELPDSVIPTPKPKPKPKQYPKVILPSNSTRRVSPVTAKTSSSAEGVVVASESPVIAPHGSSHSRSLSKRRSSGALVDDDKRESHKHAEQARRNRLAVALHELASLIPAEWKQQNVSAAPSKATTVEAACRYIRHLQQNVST
Description: relative binding free energy (BET-seq); higher = weaker binding. The following applies: reference: library average.
Regarding TTTGGCACGTGAGTTG, the “relative binding free energy” value was 0.22 kcal/mol.

Regarding AATATCACGTGAGGTT, the “relative binding free energy” value is 0.41 kcal/mol.

With CTTAACACGTGTGAGT, the “relative binding free energy” value is -0.01 kcal/mol.

In the case of TTTCCCACGTGTGTGT, the “relative binding free energy” value was 0.01 kcal/mol.

Consider AATATCACGTGATAGG, for which the “relative binding free energy” value turned out to be 0.19 kcal/mol.

With ATAAACACGTGTTTGT, the “relative binding free energy” value was -0.09 kcal/mol.

GCGGGCACGTGGAGCT: the “relative binding free energy” value was -0.12 kcal/mol.

As to GTAATCACGTGATTTA, the “relative binding free energy” value was 0.19 kcal/mol.

Consider GCGAGCACGTGGGGGG, for which the “relative binding free energy” value was -0.18 kcal/mol.

For the sequence TATAGCACGTGGATGG, the “relative binding free energy” value is -0.08 kcal/mol.

Take GTCAGCACGTGTGTGG: the “relative binding free energy” value came out at 0.06 kcal/mol.

Take GAATGCACGTGTAATG: the “relative binding free energy” value was found to be 0.21 kcal/mol.

In the case of TATGTCACGTGACGAT, the “relative binding free energy” value amounted to 0.18 kcal/mol.

Regarding ACTATCACGTGGTGTG, the “relative binding free energy” value was -0.03 kcal/mol.

Consider GTATTCACGTGGTGTC, for which the “relative binding free energy” value came out at 0.33 kcal/mol.

Regarding TTTTGCACGTGATATT, the “relative binding free energy” value turned out to be 0.1 kcal/mol.

On to TGGAACACGTGCGGGG, for which the “relative binding free energy” value amounted to 0.06 kcal/mol.

For AATTTCACGTGTTGCG, the “relative binding free energy” value stood at 0.23 kcal/mol.

For the sequence GGGGTCACGTGTCGCT, the “relative binding free energy” value turned out to be 0.09 kcal/mol.

As to TAAAGCACGTGAGTAT, the “relative binding free energy” value is 0.23 kcal/mol.

With GGGACCACGTGATGTA, the “relative binding free energy” value was 0.15 kcal/mol.

On to CTGTGCACGTGTGAGG, for which the “relative binding free energy” value came to 0.07 kcal/mol.

With TGGCTCACGTGTTGAG, the “relative binding free energy” value stood at 0.28 kcal/mol.

As for CCAGGCACGTGTGTTT, the “relative binding free energy” value is -0.01 kcal/mol.

GATTACACGTGGATTT: the “relative binding free energy” value was found to be 0.18 kcal/mol.

GATATCACGTGTGTGC: the “relative binding free energy” value stood at 0.19 kcal/mol.

Turning to GGATGCACGTGCGGTG, the “relative binding free energy” value is -0.04 kcal/mol.

For the sequence AGTATCACGTGTAGGT, the “relative binding free energy” value was 0.15 kcal/mol.

As to GGCAGCACGTGATTAT, the “relative binding free energy” value came to 0.33 kcal/mol.

Consider ATTCGCACGTGTTTGA, for which the “relative binding free energy” value was -0.18 kcal/mol.

Turning to TGTGCCACGTGTACGG, the “relative binding free energy” value is -0.08 kcal/mol.

With TGACGCACGTGTTGTG, the “relative binding free energy” value is -0.15 kcal/mol.

On to CAGTGCACGTGGTAGT, for which the “relative binding free energy” value is -0.18 kcal/mol.

For TAATACACGTGTTGGT, the “relative binding free energy” value was 0.16 kcal/mol.

Turning to AATTCCACGTGATGTG, the “relative binding free energy” value came out at 0.14 kcal/mol.

On to TTCAGCACGTGGGGGT, for which the “relative binding free energy” value is -0.25 kcal/mol.

Take GGACTCACGTGTCGTG: the “relative binding free energy” value stood at 0.21 kcal/mol.

With TGTAACACGTGTTACG, the “relative binding free energy” value was -0.02 kcal/mol.

Consider CGGGACACGTGGTCTG, for which the “relative binding free energy” value is -0.08 kcal/mol.

Consider CAGTTCACGTGCTGTT, for which the “relative binding free energy” value worked out at 0.23 kcal/mol.

Turning to ATTAGCACGTGGCTTT, the “relative binding free energy” value is -0.17 kcal/mol.

Take TATAACACGTGTATTA: the “relative binding free energy” value is 0.05 kcal/mol.

In the case of AAAGTCACGTGGGAGC, the “relative binding free energy” value was 0.19 kcal/mol.

Take AGAATCACGTGGATGG: the “relative binding free energy” value was 0.26 kcal/mol.

On to TCTTGCACGTGGGGGA, for which the “relative binding free energy” value was -0.06 kcal/mol.

For GGGATCACGTGAGCAG, the “relative binding free energy” value stood at 0.41 kcal/mol.

Take GAATGCACGTGTTGTT: the “relative binding free energy” value was found to be 0.05 kcal/mol.

Take TTTATCACGTGAATAG: the “relative binding free energy” value came out at 0.34 kcal/mol.

As for TGTTGCACGTGCGAGG, the “relative binding free energy” value worked out at 0.02 kcal/mol.

Take AGGGGCACGTGAGATC: the “relative binding free energy” value was found to be 0.12 kcal/mol.

As for GGTCTCACGTGTGAAG, the “relative binding free energy” value worked out at 0.38 kcal/mol.

On to GTTGCCACGTGCGGTT, for which the “relative binding free energy” value is -0.14 kcal/mol.

For GGCACCACGTGTGGGG, the “relative binding free energy” value is -0.02 kcal/mol.

As for GGTAACACGTGGTTGT, the “relative binding free energy” value came out at 0.04 kcal/mol.

As to TAAATCACGTGAAGTT, the “relative binding free energy” value worked out at 0.49 kcal/mol.

As for CGTATCACGTGATTAG, the “relative binding free energy” value was found to be 0.38 kcal/mol.

For GGGGTCACGTGGACAT, the “relative binding free energy” value amounted to 0.15 kcal/mol.

Regarding AGCATCACGTGTTTAT, the “relative binding free energy” value worked out at 0.17 kcal/mol.

As to TGTTTCACGTGGATGT, the “relative binding free energy” value was determined as 0.27 kcal/mol.

For TGAGTCACGTGGCTTG, the “relative binding free energy” value worked out at 0.07 kcal/mol.

Consider GGAAGCACGTGGGATG, for which the “relative binding free energy” value was -0.12 kcal/mol.

AGATACACGTGTGGGT: the “relative binding free energy” value is 0.01 kcal/mol.

As to GTAGTCACGTGTTGAC, the “relative binding free energy” value came out at 0.26 kcal/mol.

With TGTCCCACGTGGTAGT, the “relative binding free energy” value was -0.12 kcal/mol.

Consider ATTTTCACGTGATAGG, for which the “relative binding free energy” value was determined as 0.23 kcal/mol.

TTGTTCACGTGGTACA: the “relative binding free energy” value turned out to be 0.07 kcal/mol.

With TGAGTCACGTGTCTTA, the “relative binding free energy” value was found to be 0.14 kcal/mol.

As for GGCGACACGTGTAGTT, the “relative binding free energy” value was found to be 0.21 kcal/mol.

Turning to GTGGTCACGTGTTGGA, the “relative binding free energy” value was 0.17 kcal/mol.

Turning to ATTGTCACGTGATTTT, the “relative binding free energy” value worked out at 0.33 kcal/mol.

Consider AAGAACACGTGGATGG, for which the “relative binding free energy” value stood at 0.07 kcal/mol.

With AGGGGCACGTGGGACT, the “relative binding free energy” value is -0.23 kcal/mol.

Consider TTTATCACGTGGTAGC, for which the “relative binding free energy” value was found to be 0.03 kcal/mol.

Regarding AGTATCACGTGTGCGA, the “relative binding free energy” value stood at 0.04 kcal/mol.

In the case of GGTTTCACGTGGTAAA, the “relative binding free energy” value came out at 0.3 kcal/mol.

On to CAGCTCACGTGGTGGT, for which the “relative binding free energy” value came to 0.21 kcal/mol.

Consider TAGGGCACGTGTATCT, for which the “relative binding free energy” value is -0.15 kcal/mol.

For GGAGTCACGTGGTCAT, the “relative binding free energy” value came out at 0.09 kcal/mol.

TGGGGCACGTGTTAGC: the “relative binding free energy” value is -0.1 kcal/mol.

Consider TTGTCCACGTGGGGTC, for which the “relative binding free energy” value came out at 0.03 kcal/mol.

Regarding GTGGGCACGTGACATG, the “relative binding free energy” value is 0.01 kcal/mol.

On to TGGCGCACGTGAGAGT, for which the “relative binding free energy” value was 0.19 kcal/mol.

In the case of TGAGGCACGTGGGTCG, the “relative binding free energy” value is -0.19 kcal/mol.

Regarding ATGGTCACGTGCGGCG, the “relative binding free energy” value is -0.01 kcal/mol.

For GGCTACACGTGATGTG, the “relative binding free energy” value came out at 0.29 kcal/mol.

Regarding GGGTCCACGTGTTGGG, the “relative binding free energy” value came out at 0.16 kcal/mol.

For GGGAACACGTGTAGGG, the “relative binding free energy” value came to 0.03 kcal/mol.

As to TCGTTCACGTGGCGTG, the “relative binding free energy” value is 0.2 kcal/mol.

Take AGATTCACGTGAATTT: the “relative binding free energy” value is 0.36 kcal/mol.

Turning to TTGCGCACGTGGCTGG, the “relative binding free energy” value is -0.22 kcal/mol.

On to TGGGGCACGTGATATG, for which the “relative binding free energy” value was -0.08 kcal/mol.

In the case of CGGTTCACGTGTGGGT, the “relative binding free energy” value came to 0.35 kcal/mol.

As for CTGGGCACGTGATGTG, the “relative binding free energy” value was -0.03 kcal/mol.

As to GGTCTCACGTGTTGAG, the “relative binding free energy” value was determined as 0.24 kcal/mol.

As for TAGTGCACGTGAGACT, the “relative binding free energy” value was 0.2 kcal/mol.

GTGCACACGTGAGTGG: the “relative binding free energy” value came to 0.33 kcal/mol.

As for TGGAACACGTGAGGAA, the “relative binding free energy” value amounted to 0.32 kcal/mol.

With CTTTGCACGTGTAAGT, the “relative binding free energy” value is 0.15 kcal/mol.

In the case of AAATTCACGTGTTAGG, the “relative binding free energy” value is 0.15 kcal/mol.

As for CGAGGCACGTGGTGGG, the “relative binding free energy” value was -0.16 kcal/mol.

In the case of CTTTACACGTGTTGAT, the “relative binding free energy” value is -0.06 kcal/mol.

In the case of CAATTCACGTGTGGGC, the “relative binding free energy” value stood at 0.34 kcal/mol.

Regarding GACGGCACGTGTCGGG, the “relative binding free energy” value is 0.01 kcal/mol.

As for TTGTACACGTGCGTCT, the “relative binding free energy” value was determined as 0.03 kcal/mol.

Take TTTTTCACGTGAGGGT: the “relative binding free energy” value was 0.49 kcal/mol.

As to GTGGGCACGTGTCTTT, the “relative binding free energy” value is -0.09 kcal/mol.

As for TAGTGCACGTGATATA, the “relative binding free energy” value came out at 0.05 kcal/mol.

On to TTATTCACGTGAGCGG, for which the “relative binding free energy” value amounted to 0.26 kcal/mol.

For TAGTCCACGTGTTTGT, the “relative binding free energy” value was -0.02 kcal/mol.

In the case of TTCTCCACGTGTGGTT, the “relative binding free energy” value is -0.04 kcal/mol.

Turning to GTGGCCACGTGTGGTC, the “relative binding free energy” value stood at 0.06 kcal/mol.

With AAGGACACGTGAGTGG, the “relative binding free energy” value is 0.22 kcal/mol.

For ACGGACACGTGATGGG, the “relative binding free energy” value was determined as 0.17 kcal/mol.

For the sequence CTAATCACGTGTGTTT, the “relative binding free energy” value is -0.02 kcal/mol.

In the case of TTGAGCACGTGGTCAT, the “relative binding free energy” value was -0.11 kcal/mol.
